# According to patent publication US12570764B2, “Anti-MUC16 antibodies, antibody-drug conjugates, and bispecific antigen-binding molecules that bind MUC16 and CD3, and uses thereof” (Regeneron Pharmaceuticals, Inc., priority 2016, dated 2026):
# B1: BSMUC16/CD3-005: anti-MUC16 x CD3 bispecific antibody, modified (chimeric) IgG4 Fc; H1H8767P arm, CD3-VH-G20 arm (SEQ ID NO: 1866) (antibody, V domains shown)
# VH 1: QVQLVESGGGLVKPGGSLRLSCAASGFTFSNYYMSWVRQAPGKGLEWISYISGRGSTIFYADSVKGRITISRDNAKNSLFLQMNSLRAEDTAVYFCVKDRGGYSPYWGQGTLVTVSS
# VH 2: EVQLVESGGGLVQPGRSLRLSCAASGFTFDDYSMHWVRQAPGKGLEWVSGISWNSGSIGYADSVKGRFTISRDNAKNSLYLQMNSLRAEDTALYYCAKYGSGYGKFYYYGMDVWGQGTTVTVSS
# VL: [… about 100 residues …]PITFGQGTRLEIK
# Tests used:
# mouse CD3 = mouse CD3 (Mus musculus, UniProt P04235+P22646); assay: Binding to mouse CD3 (statement only)
# [1] = target: T1, soluble monomeric human MUC16 (hMUC16.mmh, last five SEA domains) (Homo sapiens, UniProt Q8WXI7); assay: Surface plasmon resonance (Biacore) binding to hMUC16 fragment at 25° C.; settings: Table 6, anti-MUC16/anti-CD3 bispecific antibodies
# T1 construct: C-terminal tags (.mmh)
# mouse MUC16 = assay: Binding to mouse MUC16 (statement only)
# [2] = tested on: human T cells (CD2+), CD69 / CD25 upregulation; assay: T cell activation in PEO-1/PBMC co-culture; type: cell-based; settings: PEO-1 target cells
# Procedure: (§1) B. In analogous studies, MUC16-expressing (PEO-1 or OVCAR3-Luc) cell lines were labeled, plated and incubated overnight as described. Serial dilutions of MUC16×CD3 bispecific antibodies or isotype control were co-incubated. See results depicted in Tables 8B and 8C, and FIGS. 12A-12B.
# (§2) T cell activation was assessed by incubating cells with directly conjugated antibodies to CD2, CD69 and/or CD25, and by reporting the percent of early activated (CD69+) T cells and/or late activated (CD25+) T cells out of total T cells (CD2+).
# [3] = tested on: human T cells (CD2+), CD69 / CD25 upregulation; assay: T cell activation in OVCAR3-Luc/PBMC co-culture; type: cell-based; settings: OVCAR3-Luc target cells
# Procedure: as §1, §2
# [4] = Pharmacokinetics in humanized MUC16 x CD3 mice (MUC16^hu/hu x CD3^hu/hu); type: in vivo, mouse; settings: single 0.4 mg/kg i.p.
# OVCAR-3/Luc [5] = assay: OVCAR-3/Luc xenograft in PBMC-engrafted NSG mice, therapeutic treatment; type: in vivo; settings: 10 μg/mouse i.p. 7 d post tumor implantation
# Text: To assess the in vivo efficacy of the anti-MUC16/anti-CD3 bispecifics in human tumor xenograft studies, NOD scid gamma (NSG) mice (Jackson Laboratories, Bar Harbor, Me.) were pre-implanted with human peripheral blood mononuclear cells (PBMCs; ReachBio LLC., Seattle, Wash.) and then given ascites cells from the human ovarian cancer cell line OVCAR-3 (American Type Tissue Culture, Manassas, Va.) transduced with luciferase (OVCAR-3/Luc). OVCAR-3 cells endogenously express MUC-16.
# Briefly, NSG mice were injected intraperitoneally (i.p.) with 5.0×10^6 human PBMCs. 8 d later, 1.5×10^6 ascites cells from the OVCAR-3/Luc cell line, previously passaged in vivo, were administered i.p. to the NSG mice engrafted with PBMCs. In the immediate treatment group, mice were treated i.p. on the day of OVCAR-3/Luc cell implantation with MUC16/CD3 Bispecific antibodies BSMUC16/CD3-001 or BSMUC16/CD3-005, or an isotype control, at a dose of 10 μg/mouse (N=5 mice/treatment group). In the therapeutic dose model, mice were treated i.p. 7 d post tumor implantation with the MUC16/CD3 Bispecific or control antibodies described above, at a dose of 10 μg/mouse (N=5/treatment group).
# In all studies, tumor growth was monitored via bioluminescent imaging (BLI). […] Regions of interest were drawn around each cell mass and photon intensities were recorded as photons (p)/sec (s)/cm^2/steradian (sr). […]
# [6] = Pharmacokinetics in CD3 humanized mice (CD3^hu/hu); type: in vivo, mouse; settings: single 0.4 mg/kg i.p., serum
# OVCAR-3/Luc [7] = assay: OVCAR-3 model study 2 (xenogenic, NSG mice engrafted with human PBMCs); type: in vivo, mouse; settings: for Avg Radiance 4 days post-implantation (median ± SEM): baseline, before dosing started
# Procedure: In further experiments, the in vivo efficacy of an anti-MUC16/anti-CD3 bispecific antibody was evaluated in xenogenic and syngeneic tumor models. For the first xenogenic model, NSG mice were injected intraperitoneally (IP) with OVCAR-3/Luc cells previously passaged in vivo (Day 0) eleven days after engraftment with human PBMCs. Mice were treated IP with 0.01, 0.1, or 0.5 mg/kg BSMUC16/CD3-001, or administered 0.5 mg/kg non-binding control or CD3-binding control on Days 6, 10, 13, 16, and 21. Tumor burden was assessed by BLI on Days 6, 14, and 20 post tumor implantation. […] For the second xenogenic model, NSG mice were injected with OVCAR-3/Luc cells previously passaged in vivo (Day 0) thirteen days after engraftment with human PBMCs and a second batch of PBMCs were transferred on Day 4. Mice were treated intravenously (IV) with 0.1, 0.5, 1, or 5 mg/kg BSMUC16/CD3-005 or administered 5 mg/kg non-binding control or CD3-binding control on Days 5, 8, 12, 15, 19 and 22. Tumor burden was assessed by BLI on Days 4, 11, 18 and 25. […] To examine efficacy in an immune-competent model, the murine CD3 gene was replaced with human CD3 and a portion of the mouse MUC16 gene was replaced with the human sequence. […] For the syngeneic tumor model, ID8-VEGF cell lines engineered to express the portion of human MUC16 were used. Mice were implanted with the ID8-VEGF/huMUC16 cells subcutaneously and treated with 100 μg of BSMUC16/CD3-001 either on day of implantation or ten days after implantation when tumors were established.
# Implantation and measurement of xenograft tumors: Ascites cells from the OVCAR-3/Luc cell line, previously passaged in vivo, were administered IP into the NSG mice previously engrafted with human PBMCs. BLI was measured as a read-out for tumor growth several days after OVCAR-3/Luc implantation and at multiple times during study. After initial BLI measurement for cohorting, mice were divided into groups of 4-6 animals each and administered MUC16×CD3 bispecific or control antibodies twice per week throughout the study.
# Calculation of xenograft tumor growth and inhibition: Bioluminescence imaging was used to measure tumor burden. Mice were injected IP with 150 mg/kg (as determined by body weights at the start of the experiment) of the luciferase substrate D-luciferin suspended in PBS. Ten minutes after dosing, BLI imaging of the mice was performed under isoflurane anesthesia using the Xenogen IVIS system. Image acquisition was carried out with the field of view at D, subject height of 1.5 cm, and medium binning level for 0.5-min exposure time. BLI signals were extracted using Living Image software. Regions of interest were drawn around each tumor mass and photon intensities were recorded as p/s/cm^2/sr. Statistical analysis was performed using GraphPad Prism software (Version 6). Statistical significance for the BLI results was determined using an unpaired nonparametric Mann-Whitney t-test. Fold changes were calculated by the formula: (Day20-Day6)/Day6 for study 1 and (Day25−Day4)/Day4 for study 2.
# T1 sequence (Q8WXI7 with tags, fused parts or gaps): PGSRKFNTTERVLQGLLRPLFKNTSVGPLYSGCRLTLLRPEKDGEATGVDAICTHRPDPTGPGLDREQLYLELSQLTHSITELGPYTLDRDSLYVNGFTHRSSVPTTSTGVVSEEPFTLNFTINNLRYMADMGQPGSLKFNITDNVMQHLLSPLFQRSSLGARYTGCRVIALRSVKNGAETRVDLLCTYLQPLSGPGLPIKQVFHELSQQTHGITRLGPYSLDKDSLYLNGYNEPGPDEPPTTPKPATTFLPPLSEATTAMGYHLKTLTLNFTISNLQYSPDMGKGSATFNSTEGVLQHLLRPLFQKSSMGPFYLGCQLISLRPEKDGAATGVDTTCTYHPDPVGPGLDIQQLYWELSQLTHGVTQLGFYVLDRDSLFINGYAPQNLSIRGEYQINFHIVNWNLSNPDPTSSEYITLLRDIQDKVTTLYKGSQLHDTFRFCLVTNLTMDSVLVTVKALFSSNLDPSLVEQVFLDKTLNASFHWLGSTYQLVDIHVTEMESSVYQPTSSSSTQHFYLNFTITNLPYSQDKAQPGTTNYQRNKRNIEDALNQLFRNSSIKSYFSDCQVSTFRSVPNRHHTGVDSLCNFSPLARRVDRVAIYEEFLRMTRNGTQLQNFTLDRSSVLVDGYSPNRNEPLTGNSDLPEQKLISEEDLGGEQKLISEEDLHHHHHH
# mouse CD3, sequence (P22646 22-189): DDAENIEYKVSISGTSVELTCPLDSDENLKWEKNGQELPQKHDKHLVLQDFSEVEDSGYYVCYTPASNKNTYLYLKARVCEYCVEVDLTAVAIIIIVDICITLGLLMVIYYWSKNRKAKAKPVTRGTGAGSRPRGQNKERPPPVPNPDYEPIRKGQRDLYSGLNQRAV
# mouse CD3, sequence (P04235 22-173): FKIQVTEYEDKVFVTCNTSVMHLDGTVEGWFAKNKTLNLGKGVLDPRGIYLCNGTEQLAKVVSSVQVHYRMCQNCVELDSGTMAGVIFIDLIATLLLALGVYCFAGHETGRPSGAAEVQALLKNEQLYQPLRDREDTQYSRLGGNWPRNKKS
molecule,measurement,setting,value
B1,Binding to mouse CD3,mouse CD3,Neither BSMUC16/CD3-001 or BSMUC16/CD3-005 bind
same,ka,[1],94100 M⁻¹ s⁻¹
same,kd,[1],0.000564 s⁻¹
same,Binding to mouse MUC16,mouse MUC16,Neither BSMUC16/CD3-001 or BSMUC16/CD3-005 bind
same,EC50,[2]; read-out: T cells activation (CD25 upregulation) EC50,0.106 nM
same,EC50,[2]; read-out: T cells activation (CD69 upregulation) EC50,0.0172 nM
same,EC50,[3],0.117 nM
same,AUClast,[4],34 ± 11 µg·days/mL
same,Fold change in Avg Bioluminescent Radiance at Day 26 relative to Day 6 (mean ± SD),OVCAR-3/Luc [5],0.01 ± 0.02
same,Terminal antibody concentration,[6],0.66 µg/mL
same,Avg Radiance 25 days post-implantation (median ± SEM),"OVCAR-3/Luc [7]; 0.1 mg/kg IV on Days 5, 8, 12, 15, 19 and 22",7.63e+06 ± 1.83e+06 p/s/cm2^2/sr
same,Fold change in Avg Radiance from Day 4 to D25 post-implantation (mean ± SD),"OVCAR-3/Luc [7]; 0.1 mg/kg IV, (Day25−Day4)/Day4",45.4 ± 35.7
same,Avg Radiance 4 days post-implantation (median ± SEM),OVCAR-3/Luc [7]; group 0.1 mg/kg IV,1.53e+05 ± 1.93e+04 p/s/cm2^2/sr
same,Avg Radiance 4 days post-implantation (median ± SEM),OVCAR-3/Luc [7]; group 0.5 mg/kg IV,1.31e+05 ± 4.03e+03 p/s/cm2^2/sr
same,Avg Radiance 4 days post-implantation (median ± SEM),OVCAR-3/Luc [7]; group 1 mg/kg IV,1.38e+05 ± 4.65e+03 p/s/cm2^2/sr
same,Avg Radiance 4 days post-implantation (median ± SEM),OVCAR-3/Luc [7]; group 5 mg/kg IV,1.54e+05 ± 1.03e+04 p/s/cm2^2/sr
